Variants at the floor of the assay are shown more often than the library holds them.
B1: TPR 5TU (parent)
chain: GGAUCUUCUCGAUCUAACAAAAAAGACAAAUCUGCCACAAAGCUUGAGAGCAUCUUCGGAUGCAGAGGCGGCAGCCUUCGGUGGCGCGAUAGCGCCAACGUUCUCAACUAUGACACGCAAAACGCGUGCUCCGUUGAAUGGAGUUUAUCAUG

Variants of: B1
Test: polymerase ribozyme fitness, log enrichment relative to wild type (log ratio); higher = more active; in vitro selection for triplet polymerase activity
How it was run: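 Streptavidin-bead capture of gel-excised extended constructs, followed by RT-PCR, closed a single triplicate in vitro selection round. That round began by annealing PCR-built, transcribed mutant libraries of each subunit of a heterodimeric triplet polymerase ribozyme with a biotinylated primer, the partner subunit and triplets, then incubating them frozen at −7 °C. After Illumina sequencing of inputs and outputs, genotypes needed ≥10 input reads and ≥1 read per output. Fitness is the base-2 logarithm of genotype enrichment over wild-type enrichment, using inverse-variance-weighted replicate averages.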

| Variant | polymerase ribozyme fitness (log ratio) |
| --- | --- |
| C93A U148A | ≤ -4.2 |
| C93A U148C | -3.62 |
| U90C C93G | ≤ -4.2 |
| G92A C116G | -2.6 |
| U90A G92C C125A | ≤ -4.2 |
| A91C U134G | ≤ -4.2 |
| C93G C105U A107G C125G | ≤ -4.2 |
| A91C C93U | ≤ -4.2 |
| A91G C149U | ≤ -4.2 |
| A91G C108U C116G G152A | -3.48 |
| A91U C96U | ≤ -4.2 |
| U90C U102C A107U | ≤ -4.2 |
| G92U A147C U148A | ≤ -4.2 |
| A89C G117U | -0.705 |
| G88A C108U | ≤ -4.2 |
| U90G A122U C125A A137U | ≤ -4.2 |
| G92A A138C U148C | ≤ -4.2 |
| G92C C103G | ≤ -4.2 |
| A91G C118G G143C | ≤ -4.2 |
| A89G G92C A97C C114U | -3.82 |
| G88C G92U | ≤ -4.2 |

| Variant | polymerase ribozyme fitness (log ratio) |
| --- | --- |
| C93U A107U C116U A142C | ≤ -4.2 |
| A91U C123A G124C U144G A147G | ≤ -4.2 |
| C93A G140A A142U | ≤ -4.2 |
| A91U U102G G140A | ≤ -4.2 |
| G92A C105U G141C | -3.39 |
| A91U C105U | ≤ -4.2 |
| C87U C93A U148G U151G | ≤ -4.2 |
| C93G C118G C132A | ≤ -4.2 |
| C93A C108G | ≤ -4.2 |
| C87U G100U C105G | ≤ -4.2 |
| A91C G92C C99U C116G C123G | ≤ -4.2 |
| A89U C93G C99U G143A | ≤ -4.2 |
| C87U C108U U139A U146A | ≤ -4.2 |
| A91C A115G U146A | ≤ -4.2 |
| A91U C96U C103A U109C | ≤ -4.2 |
| C87A G94U C118U A138G | ≤ -4.2 |
| A91U U104G | ≤ -4.2 |
| A91G G133A G141U G143U | ≤ -4.2 |
| A91C C103A | ≤ -4.2 |
| A89U A107U G133A A142G | ≤ -4.2 |
| G88U C96A U144C U148C | ≤ -4.2 |

| Variant | polymerase ribozyme fitness (log ratio) |
| --- | --- |
| C87G A91C U127G A142U | ≤ -4.2 |
| C93U A121C G140C | ≤ -4.2 |
| C87G A97G | ≤ -4.2 |
| G88U C95U A121U A122G G124A | ≤ -4.2 |
| C87U C103G A147G A150G G152U | ≤ -4.2 |
| C93A A150C | -3.74 |
| G88U G143C | ≤ -4.2 |
| C93U A98G C103A | -2.73 |
| A91C C95G C96G U148G | ≤ -4.2 |
| G88A A113U | ≤ -4.2 |
| U90A C103G A110G | ≤ -4.2 |
| C87G C99U C116G | -3.37 |
| G88U G117U U139A | ≤ -4.2 |
| G88C C105U | ≤ -4.2 |
| C87G C103A A107G A137C U151C | ≤ -4.2 |
| C87G A89C U102A C105G | ≤ -4.2 |
| C87A G112U | ≤ -4.2 |
| G92A C105G | ≤ -4.2 |
| G88U A97C C116U | ≤ -4.2 |
| C87A G117C U146C | ≤ -4.2 |
| C93G C99A G140A | ≤ -4.2 |

| Variant | polymerase ribozyme fitness (log ratio) |
| --- | --- |
| A91U A106G | -4.01 |
| A91C C99A | ≤ -4.2 |
| A91U C96G A122U G124U | ≤ -4.2 |
| C93G U144C A150C | ≤ -4.2 |
| C93A U102A A137C | ≤ -4.2 |
| G92C U148G | -3.89 |
| U90A C99U U111C | -4.13 |
| G92C C103G C116A G152C | ≤ -4.2 |
| C87U G88A U144C | ≤ -4.2 |
| C87U U144G | -0.986 |
| C93A A98U C103G C105U G126C G136C | ≤ -4.2 |
| A91C C95G | ≤ -4.2 |
| G92U A147C | -0.377 |
| U90G C96U A97G A147C | ≤ -4.2 |
| G88U C105U | -3.83 |
| C87G C99A A137C | ≤ -4.2 |
| C87G A97U G124A | ≤ -4.2 |
| C93G U148C | ≤ -4.2 |
| C87A U139G | ≤ -4.2 |
| C87A U139C | ≤ -4.2 |
